Measured values reported in the supplement of paper PMC12423691.
This is one part of the list. Binding of human transcription factors and regulators to the viral nucleoprotein by AlphaScreen, crude cell-free proteins, amounts not normalised, one pass. Fold of the Venus control; higher = more signal. No active / inactive call. Single-pass screen; sequences are the whole Swiss-Prot entries looked up by name.

B1: RORC, P51449 (protein)
chain: MDRAPQRQHRASRELLAAKKTHTSQIEVIPCKICGDKSSGIHYGVITCEGCKGFFRRSQRCNAAYSCTRQQNCPIDRTSRNRCQHCRLQKCLALGMSRDAVKFGRMSKKQRDSLHAEVQKQLQQRQQQQQEPVVKTPPAGAQGADTLTYTLGLPDGQLPLGSSPDLPEASACPPGLLKASGSGPSYSNNLAKAGLNGASCHLEYSPERGKAEGRESFYSTGSQLTPDRCGLRFEEHRHPGLGELGQGPDSYGSPSFRSTPEAPYASLTEIEHLVQSVCKSYRETCQLRLEDLLRQRSNIFSREEVTGYQRKSMWEMWERCAHHLTEAIQYVVEFAKRLSGFMELCQNDQIVLLKAGAMEVVLVRMCRAYNADNRTVFFEGKYGGMELFRALGCSELISSIFDFSHSLSALHFSEDEIALYTALVLINAHRPGLQEKRKVEQLQYNLELAFHHHLCKTHRQSILAKLPPKGKLRSLCSQHVERLQIFQHLHPIVVQAAFPPLYKELFSTETESPVGLSK
B2: BCL11A, Q9H165 (protein)
chain: MSRRKQGKPQHLSKREFSPEPLEAILTDDEPDHGPLGAPEGDHDLLTCGQCQMNFPLGDILIFIEHKRKQCNGSLCLEKAVDKPPSPSPIEMKKASNPVEVGIQVTPEDDDCLSTSSRGICPKQEHIADKLLHWRGLSSPRSAHGALIPTPGMSAEYAPQGICKDEPSSYTCTTCKQPFTSAWFLLQHAQNTHGLRIYLESEHGSPLTPRVGIPSGLGAECPSQPPLHGIHIADNNPFNLLRIPGSVSREASGLAEGRFPPTPPLFSPPPRHHLDPHRIERLGAEEMALATHHPSAFDRVLRLNPMAMEPPAMDFSRRLRELAGNTSSPPLSPGRPSPMQRLLQPFQPGSKPPFLATPPLPPLQSAPPPSQPPVKSKSCEFCGKTFKFQSNLVVHRRSHTGEKPYKCNLCDHACTQASKLKRHMKTHMHKSSPMTVKSDDGLSTASSPEPGTSDLVGSASSALKSVVAKFKSENDPNLIPENGDEEEEEDDEEEEEEEEEEEEELTESERVDYGFGLSLEAARHHENSSRGAVVGVGDESRALPDVMQGMVLSSMQHFSEAFHQVLGEKHKRGHLAEAEGHRDTCDEDSVAGESDRIDDGTVNGRGCSPGESASGGLSKKLLLGSPSSLSPFSKRIKLEKEFDLPPAAMPNTENVYSQWLAGYAASRQLKDPFLSFGDSRQSPFASSSEHSSENGSLRFSTPPGELDGGISGRSGTGSGGSTPHISGPGPGRPSSKEGRRSDTCEYCGKVFKNCSNLTVHRRSHTGERPYKCELCNYACAQSSKLTRHMKTHGQVGKDVYKCEICKMPFSVYSTLEKHMKKWHSDRVLNNDIKTE
B3: HAND1, O96004 (protein)
chain: MNLVGSYAHHHHHHHPHPAHPMLHEPFLFGPASRCHQERPYFQSWLLSPADAAPDFPAGGPPPAAAAAATAYGPDARPGQSPGRLEALGGRLGRRKGSGPKKERRRTESINSAFAELRECIPNVPADTKLSKIKTLRLATSYIAYLMDVLAKDAQSGDPEAFKAELKKADGGRESKRKRELQQHEGFPPALGPVEKRIKGRTGWPQQVWALELNQ
B4: PEG3, Q9GZU2 (protein)
chain: MLPPKHLSATKPKKSWAPNLYELDSDLTKEPDVIIGEGPTDSEFFHQRFRNLIYVEFVGPRKTLIKLRNLCLDWLQPETRTKEEIIELLVLEQYLTIIPEKLKPWVRAKKPENCEKLVTLLENYKEMYQPEDDNNSDVTSDDDMTRNRRESSPPHSVHSFSDRDWDRRGRSRDMEPRDRWSHTRNPRSRMPPRDLSLPVVAKTSFEMDREDDRDSRAYESRSQDAESYQNVVDLAEDRKPHNTIQDNMENYRKLLSLVQLAEDDGHSHMTQGHSSRSKRSAYPSTSRGLKTMPEAKKSTHRRGICEDESSHGVIMEKFIKDVSRSSKSGRARESSDRSQRFPRMSDDNWKDISLNKRESVIQQRVYEGNAFRGGFRFNSTLVSRKRVLERKRRYHFDTDGKGSIHDQKGCPRKKPFECGSEMRKAMSVSSLSSLSSPSFTESQPIDFGAMPYVCDECGRSFSVISEFVEHQIMHTRENLYEYGESFIHSVAVSEVQKSQVGGKRFECKDCGETFNKSAALAEHRKIHARGYLVECKNQECEEAFMPSPTFSELQKIYGKDKFYECRVCKETFLHSSALIEHQKIHFGDDKDNEREHERERERERGETFRPSPALNEFQKMYGKEKMYECKVCGETFLHSSSLKEHQKIHTRGNPFENKGKVCEETFIPGQSLKRRQKTYNKEKLCDFTDGRDAFMQSSELSEHQKIHSRKNLFEGRGYEKSVIHSGPFTESQKSHTITRPLESDEDEKAFTISSNPYENQKIPTKENVYEAKSYERSVIHSLASVEAQKSHSVAGPSKPKVMAESTIQSFDAINHQRVRAGGNTSEGREYSRSVIHSLVASKPPRSHNGNELVESNEKGESSIYISDLNDKRQKIPARENPCEGGSKNRNYEDSVIQSVFRAKPQKSVPGEGSGEFKKDGEFSVPSSNVREYQKARAKKKYIEHRSNETSVIHSLPFGEQTFRPRGMLYECQECGECFAHSSDLTEHQKIHDREKPSGSRNYEWSVIRSLAPTDPQTSYAQEQYAKEQARNKCKDFRQFFATSEDLNTNQKIYDQEKSHGEESQGENTDGEETHSEETHGQETIEDPVIQGSDMEDPQKDDPDDKIYECEDCGLGFVDLTDLTDHQKVHSRKCLVDSREYTHSVIHTHSISEYQRDYTGEQLYECPKCGESFIHSSFLFEHQRIHEQDQLYSMKGCDDGFIALLPMKPRRNRAAERNPALAGSAIRCLLCGQGFIHSSALNEHMRLHREDDLLEQSQMAEEAIIPGLALTEFQRSQTEERLFECAVCGESFVNPAELADHVTVHKNEPYEYGSSYTHTSFLTEPLKGAIPFYECKDCGKSFIHSTVLTKHKELHLEEEEEDEAAAAAAAAAQEVEANVHVPQVVLRIQGLNVEAAEPEVEAAEPEVEAAEPEVEAAEPNGEAEGPDGEAAEPIGEAGQPNGEAEQPNGDADEPDGAGIEDPEERAEEPEGKAEEPEGDADEPDGVGIEDPEEGEDQEIQVEEPYYDCHECTETFTSSTAFSEHLKTHASMIIFEPANAFGECSGYIERASTSTGGANQADEKYFKCDVCGQLFNDRLSLARHQNTHTG

biological target: nucleoprotein N of Crimean-Congo hemorrhagic fever virus; assay: AlphaScreen luminescence signal relative to Venus negative control (fold); higher = stronger binding to CCHFV N
Description: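 AlphaScreen binding of cell-free made, FLAG-GST-tagged human transcription factors and regulators (crude translation products) to biotinylated N protein; signal as fold of the FLAG-GST-Venus control. One pass.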

Binder | AlphaScreen luminescence signal
B1 | 4.42
B2 | 3.07
B3 | 2.79
B4 | 1.72
